Results from PubChem BioAssay AID686971 (National Center for Advancing Translational Sciences (NCATS), 2013).
The whole screen tested about 360,000 compounds, of which about 7,500 (2.1%) were called active. Inconclusive means that the source gave no clear call. Such entries were picked first, then a sample of the others. Calls come from the whole dose curve; as a rule, active = well fitted cell-killing curve with a large enough effect; inconclusive = small, poorly fitted or top-dose-only effect, or effect the other way, or another doubt; inactive = no such curve, though single readings can be large or run the other way. Potencies of inconclusive entries are left out as doubtful fits.

Assay: qHTS for induction of synthetic lethality in tumor cells producing 2HG: qHTS for the HT-1080-IDH1KD cell line;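 for activity, negative = toxicity: 0% = DMSO wells and -100% = cell-free medium wells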
Details: HT-1080 IDH1 knockdown viability, ATP luminescence, 48 h; activity, negative = toxicity: at 46.1 µM (top of the series) unless noted
How it was run: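 In this qHTS, HT-1080 cells depleted of IDH1 are exposed for 48 h at 37 °C to compound titrations. Toxicity is scored from CellTiter-Glo luminescence, with DMSO as full viability and medium alone as none.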
Potency is the fitted concentration of half-maximal effect; tags give direction and shape of the fitted curve.

| Compound | Potency | activity, negative = toxicity |
| --- | --- | --- |
| Cc1onc(-c2c(F)cccc2Cl)c1C(=O)NCCc1ccc(S(N)(=O)=O)cc1 | inconclusive [cytotoxic, single point] | – |
| COc1ccc(C2CN=NC23CCc2ccccc2C3=O)cc1 (stereo unspecified) | active: 16.4 µM | – |
| CC(C)CNC(=O)COC(=O)c1c2c(nc3ccccc13)/C(=C/c1cccs1)CC2 | inconclusive [cytotoxic, single point] | – |
| O=C(Cc1ccccc1)Nc1cccc(NC(=O)c2ccccc2)c1 | inconclusive [cytotoxic, partial curve, poor fit] | – |
| O=C(NNC(=S)NC(=O)c1cccc([N+](=O)[O-])c1)c1ccc(Br)cc1 | inconclusive [cytotoxic, partial curve] | – |
| Cc1ccc(Nc2c([N+](=O)[O-])c(=O)n(C)c3ccccc23)cc1C | inconclusive [cytotoxic, single point] | – |
| CCOC(=O)c1c(N/N=C/c2cccnc2)n[nH]c1C | inconclusive [cytotoxic, single point] | – |
| Cc1cccc(CN2CCC(Oc3ccc(C(=O)N4CCCC4)cc3)CC2)n1 | inactive | – |
| Cc1ccc(C(=O)N/C(=C\c2ccc(-c3cccc([N+](=O)[O-])c3)o2)C(=O)NCCCN2CCOCC2)cc1 | inconclusive [cytotoxic, single point] | – |
| O=C1NC(Cc2ccc(O)cc2)c2nc3cc(F)ccc3c(=O)n2-c2ncccc21 (stereo unspecified) | inactive | – |
| Oc1ccc(Cl)cc1CNc1cnc2ccccc2c1 | inconclusive [cytotoxic, single point] | – |
| CC(=O)Nc1ccc(N2CCN(C(C)=O)CC2)cc1 | – | inconclusive: 26% |
| O=C(NCc1ccccn1)C(=O)Nc1nc(C23CC4CC(CC(C4)C2)C3)cs1 | inconclusive [cytotoxic, single point] | – |
| COC(=O)c1c(NC(=O)C2CCCO2)sc2c1CCC2 (stereo unspecified) | inactive | – |
| CCc1ccc(C(=O)NNc2ccccc2F)cc1 | inconclusive [cytotoxic, full curve] | – |
| CCOC(=O)c1cc2sccc2n1CC(=O)N1CCc2ccccc21 | inconclusive [cytotoxic, full curve, poor fit] | – |
| CCC(CC)C(=O)N(C)c1c(C)nc2c(OCC3CCCCC3)cccn12 | inconclusive [cytotoxic, single point] | – |
| COC(=O)[C@@]1(Cc2ccc(OC)cc2)[C@H]2c3cc(C(=O)N4CCCC4)n(Cc4ccc(OC(F)(F)F)cc4)c3C[C@H]2CN1C(=O)c1ccccc1 | inconclusive [cytotoxic, single point] | – |
| O=C(NCCc1c[nH]c2ccccc12)C1CCC(Cn2c(=S)[nH]c3ccccc3c2=O)CC1 (stereo unspecified) | inconclusive [cytotoxic, single point] | – |
| CCOC(=O)C1=CCC(c2cccs2)N(S(=O)(=O)c2ccc(C)cc2)C1 (stereo unspecified) | inconclusive [cytotoxic, single point] | – |
| N#Cc1ccc(NC(=S)/N=C(\N)c2ccccc2)cc1 | inconclusive [cytotoxic, single point] | – |
| c1ccc2c(Nc3nc(N4CCOCC4)c4ccccc4n3)cccc2c1 | active: 14.6 µM | – |
| Cc1cccc(CC(=O)N2CCN=C2SCc2ccc([N+](=O)[O-])cc2)c1 | inconclusive [cytotoxic, single point] | – |
| Cc1nnc(N/N=C/c2cc(C)n(-c3ccc(F)cc3)c2C)n1N | inconclusive [cytotoxic, single point] | – |

| Compound | Potency | activity, negative = toxicity |
| --- | --- | --- |
| CCn1cc([N+](=O)[O-])c(C(=O)N2N=C(c3ccc4ccccc4c3)CC2c2ccccc2O)n1 (stereo unspecified) | active: 20.6 µM | – |
| Cc1cnc(NC(=O)Cc2c[nH]c3ccccc23)s1 | inconclusive [cytotoxic, single point] | – |
| COc1ccc(-c2noc(C)c2-c2ccc3ccccc3n2)c(O)c1 | inconclusive [cytotoxic, partial curve] | – |
| COc1ccc(-c2csc(NC(C)c3nc4cc(Cl)c(N5CCCCC5)cc4n3CCCO)n2)cc1 (stereo unspecified) | inconclusive [cytotoxic, single point] | – |
| Cc1ccsc1C(=O)Nc1nc2ccccc2[nH]1 | inconclusive [cytotoxic, partial curve] | – |
| CC(=O)Oc1c(C)cc(Cl)cc1C(=O)Nc1ccc([N+](=O)[O-])cc1Cl | active: 1.16 µM | – |
| Cc1c(C(=O)O/N=C(\N)c2ccccn2)cccc1[N+](=O)[O-] | inconclusive [cytotoxic, single point] | – |
| O=C1[C@@H](Oc2ccccc2)[C@@H](c2cccnc2)N1c1ccccc1 | active: 20.6 µM | – |
| CSc1ncc(C(=O)Nc2ccccc2)cn1 | inactive | – |
| COc1ccc(C(=O)N/N=C/C2CC=CCC2)cc1OC (stereo unspecified) | inactive | – |
| CCOC(=O)c1sc(=S)n(C)c1NC(=O)c1ccc(C(C)(C)C)cc1 | active: 16.4 µM | – |
| O=C1Nc2ccc(Br)cc2/C1=C/C1CC=CCC1 (stereo unspecified) | active: 20.6 µM | – |
| O=C(NCC(=O)N1CCN(S(=O)(=O)/C=C/c2ccccc2)CC1)c1ccc(Cl)cc1 | inactive | – |
| CCCCNC(=O)C1(C)CCCCN1Cc1ccc(OCc2ccccc2)cc1 (stereo unspecified) | inconclusive [cytotoxic, single point] | – |
| CC(C)(C)NC(=O)CSc1ncnc2c1cnn2-c1ccccc1 | inactive | – |
| Cc1ccc(NC(=O)CSc2nnc(-c3cnccn3)n2Cc2ccco2)cc1 | inactive | – |
| Oc1ccc(N2CCN(c3nc(-c4cccs4)nc4ccccc34)CC2)cc1 | inconclusive [cytotoxic, partial curve] | – |
| CC(C)(C)c1ccc(/C=C2\Oc3cc(O)ccc3C2=O)cc1 | inconclusive [cytotoxic, single point] | – |
| Cc1cccc(NC(=O)N[C@@H](C)C(=O)O)c1 | inactive | – |
| CCN(CC)CCNC(=O)c1sc2nc(-c3ccccc3)cn2c1C | inactive | – |
| O=C(CCN1CCC(c2ccccc2)C1)c1ccccc1 (stereo unspecified) | inconclusive [cytotoxic, single point] | – |
| C(=N\Nc1nc2ccccc2[nH]1)/c1ccc2ncccc2c1 | active: 0.731 µM | – |
| CC(C)(C)c1cc(S(=O)(=O)CCc2ccccn2)cc(C(C)(C)C)c1F | inconclusive [cytotoxic, single point] | – |
| On1onc2c3cc(-c4ccccc4)nc3ccc21 | inconclusive [cytotoxic, single point] | – |

| Compound | Potency | activity, negative = toxicity |
| --- | --- | --- |
| CC(C)CC(COCc1ccc(Cl)cc1)N1CCN(C(=O)c2ccc(Cl)cc2Cl)CCC1=O (stereo unspecified) | inconclusive [cytotoxic, single point] | – |
| COc1ccc(CCn2c(N)c(C(=O)NCc3ccco3)c3nc4ccccc4nc32)cc1OC | active: 17.8 µM | – |
| O=C(OCn1ncc(Cl)c(Cl)c1=O)c1cccc(C(F)(F)F)c1 | active: 20.6 µM | – |
| CCN(C[C@H]1N[C@@](CC)(C(=O)OC)[C@H]2C(=O)N(Cc3ccccc3)C(=O)[C@@H]12)S(=O)(=O)c1ccc(OC)cc1 | inactive | – |
| Cc1ccc(O)c(NC(=S)NC(=O)c2ccccc2Cl)c1 | inconclusive [cytotoxic, single point] | – |
| S=C(Nc1cccc(Cl)c1Cl)NC1CCN(Cc2ccccc2)CC1 | inconclusive [cytotoxic, single point] | – |
| CC(=O)c1ccc(NC(=O)C(C)Sc2nnc(-c3ccncc3)n2C2CC2)cc1 (stereo unspecified) | inactive | – |
| CCOC(=O)c1c(C)[nH]c(C(=O)N/N=C\c2ccccc2O)c1C | active: 5.8 µM | – |
| Cc1ccccc1C(=O)N1CCN(c2ccc(NC(=O)c3ccc([N+](=O)[O-])o3)cc2)CC1 | active: 2.59 µM | – |
| COc1ccc(C(=O)/C=C/N2CCCCC2)cc1OC | inconclusive [cytotoxic, single point] | – |
| Nc1c(S(=O)(=O)c2cccs2)c2nc3ccccc3nc2n1Cc1ccc2c(c1)OCO2 | inconclusive [cytotoxic, single point] | – |
| O=C1Cc2ccccc2C(c2ccc(Br)cc2)N1 (stereo unspecified) | inconclusive [cytotoxic, partial curve] | – |
| CC(C)C1C(=O)N(Cc2cn(CC3CCCCC3)nn2)CCS(=O)(=O)N1Cc1ccc(-c2ccc(F)nc2)cc1 (stereo unspecified) | inconclusive [cytotoxic, single point] | – |
| Cc1ccc(Cn2ccc(=O)c(OCc3c(Cl)cccc3Cl)c2C)cc1 | inconclusive [cytotoxic, single point] | – |
| Cc1c(NC(=O)c2cccc(-c3cc4ccccc4oc3=O)c2)cccc1-c1nc2ncccc2o1 | inactive | – |
| CC1CCN(c2ccc(-c3ccc(NC(=O)C(F)(F)F)cc3)nn2)CC1 | inconclusive [cytotoxic, single point] | – |
| COc1ccc(-c2nc3ccc(Br)cn3c2Cc2ccccc2C(F)(F)F)cc1OC | inconclusive [cytotoxic, single point] | – |
| O=C1O[C@@H](c2ccccc2)C[C@@H](O)[C@H](O)CCCc2ccccc21 | inactive | – |
| Cc1ccc(S(=O)(=O)NCc2ccncc2)cc1C(=O)NCC(C)C | inactive | – |
| CCC(=O)N1c2ccc(S(=O)(=O)CCC(=O)NCc3cccs3)cc2CC1C (stereo unspecified) | inconclusive [cytotoxic, single point] | – |
| O=C(NCc1ccc(Cl)cc1)C(=O)N/N=C/c1ccc(Br)cc1 | inactive | – |
| COC(=O)c1sccc1-n1cccc1C(=O)N1CCOCC1 | inactive | – |
| O=C(Nc1scc(-c2cccs2)c1C(=O)O)c1cccs1 | inconclusive [cytotoxic, single point] | – |
